Data on 90 molecules can be found in PMC4336329 (PLoS ONE, 2015).

The whole screen tested about 310,000 compounds, of which about 14,000 (4.5%) showed an effect of 50% or more. The effect is printed as a negative number. The list shows a part of the results.
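Note: peak tail current of the secondary pulse compared with the same well before compound.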

The assay deals with human ether-à-go-go-related gene (hERG) potassium channel (human, UniProt Q12809). Nature of the assay: primary screen, population patch clamp on CHO cells stably expressing hERG.
human ether-à-go-go-related gene (hERG) potassium channel, sequence (Q12809 whole entry, looked up): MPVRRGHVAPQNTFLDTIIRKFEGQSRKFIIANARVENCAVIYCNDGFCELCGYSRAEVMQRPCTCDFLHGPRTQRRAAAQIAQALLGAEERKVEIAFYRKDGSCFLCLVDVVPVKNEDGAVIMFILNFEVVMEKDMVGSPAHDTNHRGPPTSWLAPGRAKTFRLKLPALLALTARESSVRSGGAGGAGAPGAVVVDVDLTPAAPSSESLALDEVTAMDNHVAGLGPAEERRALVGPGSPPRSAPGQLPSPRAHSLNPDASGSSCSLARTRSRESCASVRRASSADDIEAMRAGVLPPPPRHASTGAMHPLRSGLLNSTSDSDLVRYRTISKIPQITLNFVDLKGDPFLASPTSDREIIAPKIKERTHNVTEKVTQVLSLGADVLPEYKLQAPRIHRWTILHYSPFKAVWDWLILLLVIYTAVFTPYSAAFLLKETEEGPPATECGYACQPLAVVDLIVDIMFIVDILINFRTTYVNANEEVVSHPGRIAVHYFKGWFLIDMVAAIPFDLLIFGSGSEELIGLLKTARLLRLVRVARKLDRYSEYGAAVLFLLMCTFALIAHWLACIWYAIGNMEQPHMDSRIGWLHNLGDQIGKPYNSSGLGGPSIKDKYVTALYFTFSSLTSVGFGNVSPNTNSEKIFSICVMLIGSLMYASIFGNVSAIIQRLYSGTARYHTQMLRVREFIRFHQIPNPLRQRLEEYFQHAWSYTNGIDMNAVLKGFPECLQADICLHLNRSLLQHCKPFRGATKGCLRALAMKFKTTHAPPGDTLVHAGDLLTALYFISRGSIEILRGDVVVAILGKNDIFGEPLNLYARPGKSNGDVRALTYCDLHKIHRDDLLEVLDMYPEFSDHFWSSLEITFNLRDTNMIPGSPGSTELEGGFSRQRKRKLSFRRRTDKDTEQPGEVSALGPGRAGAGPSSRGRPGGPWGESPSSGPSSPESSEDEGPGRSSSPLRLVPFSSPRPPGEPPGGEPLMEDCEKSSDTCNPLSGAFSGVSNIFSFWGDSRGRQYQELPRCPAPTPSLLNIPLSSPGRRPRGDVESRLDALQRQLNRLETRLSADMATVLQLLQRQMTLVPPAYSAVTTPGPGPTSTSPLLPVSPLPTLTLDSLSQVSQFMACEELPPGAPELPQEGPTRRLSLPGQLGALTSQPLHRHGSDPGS
With `O=C(CN1C(=O)C(=O)N(Cc2ccco2)C1=O)NC1CCCCC1`, the “hERG current change (%, negative = inhibition) at 10uM” value is given as 23.2%. `O=C(NCc1cccnc1)c1ccc(Cl)c(S(=O)(=O)Nc2ccccc2C(=O)NCc2cccnc2)c1`: the “hERG current change (%, negative = inhibition) at 10uM” value is recorded as 14.2%.

Take `COC(=O)c1ccccc1NC(=O)CSc1nnc(-c2cccnc2)n1N`: the “hERG current change (%, negative = inhibition) at 10uM” value was -6.71%. As for `O=C1c2ccccc2CSc2c(O)cccc21`, the figure is -15.1%; as for `CS(=O)(=O)N(CC(=O)N1CCCCCC1)c1cccc(Br)c1`, -16.9%. As for `Cc1c(C(=O)NC(C)CN2CCCCC2)oc2ccccc12` (stereo not drawn), the figure is -27.6%. As for `O=C(COc1cccc2ccccc12)NCc1cccnc1`, the figure is 1.02%. On to `CCC1CCCCN1S(=O)(=O)c1ccc2c(c1)CCN2C(C)=O` (stereo not drawn), for which the “hERG current change (%, negative = inhibition) at 10uM” value was 0.962%.

Take `CCn1c(CNc2nc(-c3ccccc3)cs2)nnc1SCC(=O)NCc1ccccc1`: the “hERG current change (%, negative = inhibition) at 10uM” value is reported as -3.04%.

On to `CCOC(=O)c1c(C)c(C(=O)N2CCc3ccccc3C2)c(C)n1CC`, for which the “hERG current change (%, negative = inhibition) at 10uM” value is recorded as -11.9%. As for `C=CCn1c(SCC(=O)NC2CCCCC2)nnc1-c1ccc(OC)cc1`, the figure is -12%. As for `COc1ccc2[nH]c(C(=O)Nc3ccc(F)cc3Br)cc2c1`, the figure is 11.7%. As for `COCC(=O)c1[nH]c2ccccc2c1C`, the figure is 8.33%; as for `O=C(NCCN1C(=O)C2C3C=CC(C3)C2C1=O)N1CCCCC1` (stereo not drawn), 8%. As for `Cc1ccc(N(C(=O)c2ccco2)C(C(=O)NC2CCCC2)c2cccnc2)cc1` (stereo not drawn), the “hERG current change (%, negative = inhibition) at 10uM” value is on record as -9.88%. Consider `CCOC(=O)CCc1cnccc1-c1cccc(OC)c1O`, for which the “hERG current change (%, negative = inhibition) at 10uM” value is given as -1.53%. As for `CC(=O)N(CCC(c1ccco1)C(C)C)Cc1ccc(OC(C)C)cc1` (stereo not drawn), the figure is -9.13%. Regarding `CCOC(=O)C1CCN(C(=O)Cn2cnc3sc(C)c(S(=O)(=O)N4CCOCC4)c3c2=O)CC1`, the “hERG current change (%, negative = inhibition) at 10uM” value is -14%.

As for `CCOc1ccc(N(C(=O)c2ccccc2Cl)C2=NC(C)(C)CS2)cc1`, the “hERG current change (%, negative = inhibition) at 10uM” value was -6.11%. As for `CCc1ccccc1N(CC)C(=O)CCc1nc(-c2ccc(C)cc2)no1`, the figure is -6.03%. As for `O=C(O)Cn1cc(/C=C2\SC(=O)N(c3ccccc3)C2=O)c2ccccc21`, the figure is 17.6%; as for `Cc1cccc2cc(CNCC3CCCO3)c(Cl)nc12` (stereo not drawn), 21.9%; as for `CC1CCCCN1C(=O)c1c(Cl)cnn1C` (stereo not drawn), 4.61%.

Turning to `O=C(NCC1CCCO1)/C(=C/c1cn(-c2ccccc2)nc1-c1cccnc1)NC(=O)c1ccccc1` (stereo not drawn), the “hERG current change (%, negative = inhibition) at 10uM” value is -38.1%. As for `Cc1nn(CC(=O)NCCN2CCOCC2)c(=O)c2cc3sccc3n12`, the figure is 23.6%; as for `O=C(Oc1ccc(OC(=O)C2CCC2)cc1)C1CCC1`, 0.929%; as for `CN(C(=O)CSc1ccc(S(=O)(=O)N2CCCCC2)cn1)c1ccccc1`, -31.7%. As for `CCOC(=O)c1c(CN2CCCCC2)oc2ccc(OC)cc12`, the figure is -61.6%; as for `Cc1oc(-c2cc(F)ccc2F)nc1CN1CCN(c2ncnc3ccccc23)CC1`, -43.6%; as for `CCSc1nc2c(c(=O)n1CC)SC(C)C2` (stereo not drawn), -1.82%.

Take `COc1ccc(N2CCN(C3CC(=O)N(C)C3=O)CC2)cc1` (stereo not drawn): the “hERG current change (%, negative = inhibition) at 10uM” value is 17.4%. For the molecule `CCOP(=O)(OCC)C(Cc1ccccc1)NC(C)=O` (stereo not drawn), the “hERG current change (%, negative = inhibition) at 10uM” value is recorded as 5.04%. As for `Cc1ccc(C(=O)/C=C/c2cc(C#N)n(C)c2C)cc1`, the “hERG current change (%, negative = inhibition) at 10uM” value is given as -23%. As for `COc1cc(CN(C)Cc2ccccc2)cc(OC)c1O`, the figure is -9.78%; as for `CC(C)(C)c1ccc(C(=O)Nc2cccc(-n3cnnn3)c2)cc1`, -44.4%. As for `COc1ccc(/C=C2\SC(=O)N(CCC(=O)N(C)C3CCS(=O)(=O)C3)C2=O)cc1` (stereo not drawn), the figure is -7.26%; as for `COc1ccc(S(=O)(=O)N(CC(C)C)C2CCS(=O)(=O)C2)cc1OC` (stereo not drawn), 4.62%. As for `NS(=O)(=O)c1ccc(CCNC(=O)CCNC(=O)c2ccco2)cc1`, the figure is 23%; as for `CC(=O)c1ccc(NC(=O)CSc2nnc(-c3ccncc3)n2C2CC2)cc1`, -5.46%; as for `CCc1nnc(NC(=O)C2CCCN2S(=O)(=O)c2ccccc2)s1` (stereo not drawn), 14.8%. `CCC1=NN2C(=N)/C(=C/c3ccc(OS(=O)(=O)c4ccc(C)cc4)c(OC)c3)C(=O)N=C2S1`: the “hERG current change (%, negative = inhibition) at 10uM” value was -11.6%. As for `O=C(Oc1ccc(C(=S)N2CCOCC2)cc1)c1cccc([N+](=O)[O-])c1`, the figure is 9.24%. As for `COc1cccc(C2C(C#N)=C(N)Oc3cc(C)oc(=O)c32)c1OC` (stereo not drawn), the figure is 1.46%.

As for `O=C(c1ccco1)N1N=C(c2cccs2)CC1c1cc([N+](=O)[O-])ccc1O` (stereo not drawn), the “hERG current change (%, negative = inhibition) at 10uM” value amounted to 7.51%.

For `CCN(C(=O)COC(=O)c1cn(-c2ccccc2)nc1-c1ccccc1)C1CCS(=O)(=O)C1` (stereo not drawn), the “hERG current change (%, negative = inhibition) at 10uM” value was -75.9%.

As for `O=C(NC(=S)Nc1ccc2c(c1)OCO2)c1ccc(Cl)cc1`, the “hERG current change (%, negative = inhibition) at 10uM” value is reported as 3.42%.

On to `c1ccc(C2=NN(c3ccccc3)CC2)cc1`, for which the “hERG current change (%, negative = inhibition) at 10uM” value was -5.39%. For the molecule `CCC(C(=O)Nc1ccccc1C(=O)N1CCOCC1)N1C(=O)c2ccccc2C1=O` (stereo not drawn), the “hERG current change (%, negative = inhibition) at 10uM” value is 3.69%. For `COc1ccc(OCC(O)CNCCNc2nccc(C(F)(F)F)n2)cc1` (stereo not drawn), the “hERG current change (%, negative = inhibition) at 10uM” value is on record as -23.3%. In the case of `CC(=O)N(C)c1ccc(NC(=O)c2cnn(C)c2)cc1`, the “hERG current change (%, negative = inhibition) at 10uM” value is given as 3.39%.

With `CCOc1ccc2nc(SCC(=O)Nc3ccc4c(c3)OCO4)sc2c1`, the “hERG current change (%, negative = inhibition) at 10uM” value is recorded as 2.95%. As for `CN(C)c1ccc(N=Nc2ccc(S(=O)(=O)[O-])cc2)c2ccccc12.[Na+]`, the figure is 8.94%; as for `CCCC(=O)Nc1c(-c2ccc(OC)cc2)c(=O)c2ccccc2n1C`, 10.3%.

On to `CC(C)(C)NC(=O)CN1C(=O)NC(c2ccccc2)(c2ccccc2)C1=O`, for which the “hERG current change (%, negative = inhibition) at 10uM” value is 19.4%. As for `CC(C)Nc1nnc(SCC(=O)NCc2ccc3c(c2)OCO3)s1`, the figure is 17.2%; as for `COc1cccc(C(=O)COC(=O)CCC(=O)NC2CCCCC2)c1`, 10.3%. For the molecule `COc1ccccc1NC(=O)CSc1nnc(Cn2cnc3ccccc32)o1`, the “hERG current change (%, negative = inhibition) at 10uM” value is 5.1%.

For `CCn1c(/C=C2\C(=O)N(C(C)C)c3ccccc32)nc2ccccc2c1=O`, the “hERG current change (%, negative = inhibition) at 10uM” value is on record as -3.14%. Take `O=C(c1ccccc1)c1cc(-c2ccccn2)c(N2CCOCC2)s1`: the “hERG current change (%, negative = inhibition) at 10uM” value is recorded as -29.4%. As for `CCCCOc1ccc(S(=O)(=O)N2CCN(C)CC2)cc1`, the figure is -0.958%; as for `c1ccc(N2CCN(CCc3nnc4n3CCCCC4)CC2)cc1`, -5.3%; as for `N#C/C(=C\c1ccc(O)c(O)c1)C(=O)c1ccc(O)c(O)c1`, 10.6%.

On to `Cc1cc(C)c(S(=O)(=O)n2c([N+](=O)[O-])cnc2C)cc1C`, for which the “hERG current change (%, negative = inhibition) at 10uM” value was 4.29%. As for `COc1ccc(NC(=O)CSc2nnc(-c3ccccc3)n2Cc2ccco2)cc1OC`, the figure is -34.6%; as for `CCn1c(CCn2c3ccccc3c3ccccc32)n[nH]c1=S`, 0.765%; as for `CN(C(=O)C1CCOC1)c1nnc(-c2cnccn2)s1` (stereo not drawn), 11.1%. With `O=C(Cc1ccc([N+](=O)[O-])cc1)Nc1ccc(C(=O)N2CCOCC2)cc1`, the “hERG current change (%, negative = inhibition) at 10uM” value worked out at 11.9%. As for `Cc1c(-c2ccco2)[n+](=O)c2c(n1[O-])CCCCC2`, the figure is 10.9%; as for `O=C1c2ccccc2C(=O)N1S(=O)(=O)c1ccccc1`, 8.58%; as for `CN1Cc2ccccc2N(CC(=O)NCc2ccccc2)C1=O`, 9.34%. As for `COc1ccc(-n2c(C)cc(C(=O)COC(=O)c3ccc(O)cc3O)c2C)cc1`, the figure is 10.7%; as for `Fc1cccc(Cl)c1Cn1nnc2c(NCc3ccncc3)ncnc21`, -1.95%.

Take `O=C(NC(=S)NCc1cccnc1)c1cc(Br)ccc1Cl`: the “hERG current change (%, negative = inhibition) at 10uM” value came to 18.2%.

For the molecule `CC1(C(=O)N/N=C/c2ccc([N+](=O)[O-])o2)CC1(Br)Br` (stereo not drawn), the “hERG current change (%, negative = inhibition) at 10uM” value is on record as -17%. As for `COC(=O)COc1cccc(-n2cnnn2)c1`, the figure is 2.56%; as for `CCCc1cc(C(=O)N2CCCC(CO)(CCCc3ccccc3)C2)n(C)n1` (stereo not drawn), -46%; as for `CC(C)Nc1nnc(SC(C)C(=O)N(C)C2CCCCC2)s1` (stereo not drawn), 9.69%.

Consider `O=S(=O)(c1ccc(Cl)cc1)N1CCC(N2CCCCCC2)CC1`, for which the “hERG current change (%, negative = inhibition) at 10uM” value is listed as -49.9%. As for `Cc1[nH]c(=O)[nH]c(=O)c1S(=O)(=O)N1CCC(C(=O)N2CCN(Cc3ccccc3)CC2)CC1`, the figure is 13.2%; as for `Cc1ccc(C)c2[nH]c(=O)c(CCNC(=O)c3ccc4c(c3)OCO4)cc12`, 9.6%; as for `Clc1ccc(-c2n[nH]c3c2CCC3)c(Cl)c1`, 16.2%. As for `COC(=O)c1ccc(CSc2nc3cc(Cl)ccc3s2)o1`, the figure is 9.32%; as for `NC(=O)CC(NC(=O)Cc1cccc2ccccc12)c1ccc(NC2CC3CCC2C3)c([N+](=O)[O-])c1` (stereo not drawn), 3.15%; as for `Cc1ccc(C(=O)N/N=C\c2ccncc2)s1`, 11.3%.

Turning to `O=c1oc2ccccc2cc1-c1nc(-c2ccccc2)no1`, the “hERG current change (%, negative = inhibition) at 10uM” value is on record as -5.23%. As for `CC1CN(C(=O)C2CCCCC2)C(C)CN1C(=O)C1CCCCC1` (stereo not drawn), the figure is 15.1%; as for `O=C(O)/C=C/C(=O)N1CCN(c2cccc(Cl)c2)CC1`, 8.61%. With `COC(=O)c1c(C)[nH]c(C)c1-c1ccc(C)cc1`, the “hERG current change (%, negative = inhibition) at 10uM” value was 10.5%.

As for `COc1ccc2c(c1)c(=O)oc1c(C)c(OCc3ccc(C(=O)O)cc3)ccc12`, the “hERG current change (%, negative = inhibition) at 10uM” value is given as 2.39%. As for `Cc1ccc(OCC(=O)NNC(=S)NC(=O)C(C)(C)C)c(Br)c1`, the figure is 25.9%.
